Reference: a collection of fitness landscapes (doi:10.1038/s41467-024-54723-y)
Over roughly 18,000 sequences, “TetR repression strength (sort-seq, GFP reporter)” has its median near 0.23; the highest 2% begin near 0.68. This is one part of the list.

The sequences below were run against TetR (class B, Tn10) (UniProt P04483) (assay: TetR repression strength (sort-seq, GFP reporter) (relative to tetO2 = 1); higher = stronger repression). Conditions: E. coli.
In short: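 Repression strength is the top bin index plus one minus the read-weighted mean bin, relative to the unaltered operator's value. A low-copy library in E. coli SIG10-MAX randomized eight operator positions between a constitutive promoter and sfGFP, with TetR expressed constitutively; cells grew 5 h at 37 °C in LB with 50 µg/mL chloramphenicol and 10^6 were FACS-sorted into 13 bins that were each Illumina-sequenced. Three independent transformations were averaged, keeping only members with ≥30 reads in all replicates and CV ≤0.5.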

Chain of UniProt P04483 (P04483 whole entry): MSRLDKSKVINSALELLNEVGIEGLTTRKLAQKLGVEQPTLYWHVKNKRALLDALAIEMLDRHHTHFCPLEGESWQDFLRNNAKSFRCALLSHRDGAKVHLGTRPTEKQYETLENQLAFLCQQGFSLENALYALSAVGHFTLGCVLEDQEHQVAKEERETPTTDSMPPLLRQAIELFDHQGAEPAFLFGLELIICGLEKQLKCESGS

Sequence	TetR repression strength
TCCCTAAGAGTCCTCGAGA	0.353
TCCCTAAGAGTCAATGAGA	0.231
TCCCTCATAGTCGAGGAGA	0.214
TCCCGCTGAGTAGGCGAGA	0.587
TCCCTTGTAGTAATCGAGA	0.397
TCCCGATGAGTGATAGAGA	0.615
TCCCACGGAGTAAGGGAGA	0.292
TCCCTTGCAGTGACCGAGA	0.315
TCCCTCATAGTATGTGAGA	0.257
TCCCAGCAAGTAGGGGAGA	0.289
TCCCTACCAGTGATCGAGA	0.593
TCCCTTAGAGTGGCTGAGA	0.315
TCCCGGTCAGTTCGGGAGA	0.317
TCCCGCCAAGTGATAGAGA	0.343
TCCCCTTTAGTGCGTGAGA	0
TCCCAATCAGTCGAAGAGA	0.334
TCCCGGGGAGTCCCCGAGA	0.165
TCCCGAGGAGTGATCGAGA	0.228
TCCCTAGGAGTACTGGAGA	0.216
TCCCTAAAAGTGCACGAGA	0.261
TCCCCCGAAGTGCGCGAGA	0.123
TCCCCAAGAGTACAAGAGA	0.259
TCCCCTTGAGTCCTTGAGA	0.326
TCCCCGTTAGTGACTGAGA	0.398
TCCCCCGAAGTAACCGAGA	0.221
TCCCTACTAGTACGGGAGA	0.394

Sequence	TetR repression strength
TCCCGTTTAGTCACGGAGA	0.025
TCCCCCAAAGTGAAGGAGA	0.104
TCCCGTATAGTTCTCGAGA	0.104
TCCCGCACAGTCGGTGAGA	0.295
TCCCACTCAGTGGAAGAGA	0.283
TCCCCTAAAGTTAACGAGA	0.104
TCCCTACTAGTGTCGGAGA	0.24
TCCCAGCCAGTTGTGGAGA	0.243
TCCCCTAAAGTAGATGAGA	0.0432
TCCCCACTAGTGACTGAGA	0.244
TCCCGCAGAGTTATGGAGA	0.128
TCCCTTGTAGTTATGGAGA	0.504
TCCCCGGAAGTTGCGGAGA	0.0399
TCCCATCTAGTTCAAGAGA	0.465
TCCCAGGAAGTGTGCGAGA	0.181
TCCCCTGAAGTATTTGAGA	0.307
TCCCTAAGAGTGCTTGAGA	0.525
TCCCGTGTAGTAAGTGAGA	0.313
TCCCCGATAGTGTGCGAGA	0.501
TCCCGGTGAGTGAAAGAGA	0.347
TCCCTTTGAGTGGCCGAGA	0.0935
TCCCACGGAGTGGAGGAGA	0.263
TCCCGATCAGTTATTGAGA	0.603
TCCCCAGTAGTTAGGGAGA	0.28
TCCCTTGGAGTAAGCGAGA	0.233
TCCCTTAAAGTTCCTGAGA	0.461

Sequence	TetR repression strength
TCCCGGGTAGTGAGTGAGA	0.242
TCCCCGGCAGTGGTGGAGA	0.25
TCCCGCTGAGTTTCGGAGA	0.0874
TCCCCTCGAGTGAAAGAGA	0.319
TCCCCTGAAGTTCTGGAGA	0.237
TCCCTCGGAGTGCACGAGA	0.185
TCCCATTCAGTTACGGAGA	0.254
TCCCAACGAGTAGAGGAGA	0.259
TCCCCAGTAGTCCGGGAGA	0.162
TCCCCACGAGTCTATGAGA	0.333
TCCCAAGCAGTGCGAGAGA	0.221
TCCCAACTAGTCGACGAGA	0.701
TCCCGGGCAGTTGTCGAGA	0.325
TCCCTAACAGTGGTCGAGA	0.518
TCCCAATGAGTGGCAGAGA	0.312
TCCCGAGCAGTGAAGGAGA	0.233
TCCCAACGAGTTAGGGAGA	0.145
TCCCATGCAGTATACGAGA	0.228
TCCCCTAGAGTATTCGAGA	0.207
TCCCTGCTAGTAAACGAGA	0.389
TCCCCGAAAGTCCATGAGA	0.223
TCCCTCAAAGTAGGCGAGA	0.112
TCCCGGGGAGTGCTGGAGA	0.359
TCCCCGTCAGTCGCCGAGA	0.174
TCCCCGCGAGTGTACGAGA	0.225
TCCCAAAGAGTGGGGGAGA	0.217

Sequence	TetR repression strength
TCCCGGGGAGTAGCGGAGA	0.0598
TCCCAAACAGTGACAGAGA	0.622
TCCCGGCAAGTGGTTGAGA	0.452
TCCCCGGCAGTTCGCGAGA	0
TCCCCGTTAGTTTAGGAGA	0.104
TCCCTGCTAGTCCGTGAGA	0.401
TCCCGGCTAGTTCGAGAGA	0.282
TCCCCGTTAGTGTCGGAGA	0.137
TCCCCGCTAGTCAGTGAGA	0.107
TCCCCAGGAGTGATAGAGA	0.339
TCCCATAGAGTTTGGGAGA	0.127
TCCCTCTGAGTAGAAGAGA	0.206
TCCCATGCAGTGCTCGAGA	0.218
TCCCCCTTAGTAGGCGAGA	0.156
TCCCGCGCAGTGGGTGAGA	0.184
TCCCAAGCAGTGCCGGAGA	0.228
TCCCACGTAGTACCCGAGA	0.104
TCCCCGTCAGTAGGTGAGA	0.402
TCCCTCAGAGTGTTGGAGA	0.0939
TCCCTGGAAGTCCGGGAGA	0.209
TCCCCTTTAGTCGCGGAGA	0.193
TCCCAACAAGTTTAAGAGA	0.41
TCCCCCTAAGTTGCAGAGA	0.227
TCCCGCAGAGTCTGGGAGA	0.165
